# Screen size: about 50,000 compounds; about 800 (1.6%) showed an effect of 50% or more. The list shows a part of the results.
# Target: Bcl-2-like protein 10 (Homo sapiens) (UniProt Q9HD36)
# Test: Phenotype converters, Bcl-B/TR3 peptide binding displacement, primary biochemical FP (AID 1240);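 also: 0% = Bcl-B with tracer peptide and DMSO and 100% = tracer peptide lacking Bcl-B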
# Conditions: GST-Bcl-B / FITC-TR3 peptide fluorescence polarization; stronger effect = higher value; compound at 3.75 mg/L
# UniProt Q9HD36, sequence (Q9HD36 whole entry, looked up): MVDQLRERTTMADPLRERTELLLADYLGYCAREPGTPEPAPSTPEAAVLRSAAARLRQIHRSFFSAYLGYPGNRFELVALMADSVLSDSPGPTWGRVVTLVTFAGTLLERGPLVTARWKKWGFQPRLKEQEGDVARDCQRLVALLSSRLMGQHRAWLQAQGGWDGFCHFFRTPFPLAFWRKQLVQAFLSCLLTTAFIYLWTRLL
row,Structure (SMILES),displacement
1,COCCCNC(=O)C(=O)Nc1ccccc1F,-11.9%
2,CC(=Nc1cc(Cl)ccc1O)c1c(-c2ccccc2)[nH]n(-c2nc3ccccc3s2)c1=O,-4.2%
3,CC(C)Cc1nnc(NC(=O)COc2ccccc2)s1,-10.7%
4,Cc1[nH]c2c(Cl)cccc2c(=O)c1CN1CCOCC1,12.3%
5,CCOC(=O)c1cnn(Cc2cccc(Cl)c2)c1C,-2.7%
6,COC(=O)COc1ccc2c(-c3ccccc3)cc(=O)oc2c1C,7.3%
7,COc1ccc(CN2CCN(C(=O)c3ccc(-c4ccccc4)cc3)CC2)c(OC)c1,-18.7%
8,Cc1no[n+]([O-])c1COc1ccccc1C=C1C(=O)NC(=O)NC1=O,7.7%
9,O=C(Oc1cccc(/C=C2/SC(=S)N(c3ccccc3)C2=O)c1)c1ccco1,-17.2%
10,COC(=O)c1c(N)sc(C)c1-c1ccc(C)cc1C,-10.6%
11,COc1ccc(O)c(/C=C2\SC(=S)N(Cc3ccccc3)C2=O)c1,7.6%
12,Cc1cccc(C(=O)NCc2ccncc2)c1,5.2%
13,CCC(=O)Nc1ccc2oc(-c3ccccc3Br)nc2c1,8.7%
14,O=C(O)c1ccc(NC(=O)c2ccc3c(c2)C(=O)N(c2ccc([N+](=O)[O-])cc2)C3=O)cc1,10.6%
15,COc1nccnc1NS(=O)(=O)c1ccc(NC(=S)NC(=O)c2ccc(F)c(F)c2)cc1,6.6%
16,O=C(O)c1ccc(S(=O)(=O)c2ccc3c(c2)C(=O)N(c2ccc(O)c(C(=O)O)c2)C3=O)cc1,14.6%
17,O=C(COC(=O)C1CC(O)CN1C(=O)Oc1ccccc1)c1ccc(Cl)cc1 (centres undefined),10.1%
18,COc1ccc(C(=O)Nc2cccc(-c3nc4ccccc4s3)c2C)cc1[N+](=O)[O-],-0.4%
19,COc1ccc(S(=O)(=O)N2CCN(C(=O)c3cccs3)CC2)cc1,13.7%
20,COc1ccc(Cl)cc1NC(=O)CN(CCc1ccccc1)S(=O)(=O)c1ccccc1,11.9%
21,COC(=O)C1=C(C)NC2=C(C(=O)c3ccccc32)C1c1ccccc1OCc1ccc(Br)cc1 (centres undefined),16.5%
22,CCOc1ccc(N2C(=O)CC(Sc3nnc(C)s3)C2=O)cc1 (centres undefined),-3.8%
23,N#C/C(=C\c1ccc(F)cc1)c1nn(CCO)c(N)c1C#N,-45.5%
24,CCOC(=O)c1cc(CC)sc1NC(=O)c1ccc(N2CCN(CC)CC2)c([N+](=O)[O-])c1,-11%
25,O=C(COc1ccccc1[N+](=O)[O-])N=Nc1c(O)[nH]c(=O)[nH]c1=O,12.9%
26,Clc1ccc(Cc2noc(C34CC5CC(CC(C5)C3)C4)n2)cc1,0.1%
27,Cc1cc(/C=C2/SC(=O)NC2=O)c(C)n1C,28.6%
28,CCc1ccc(S(=O)(=O)Nc2c(C)cc(C)cc2C)cc1,3%
29,Cc1ccccc1NC(=S)NC(=O)c1ccc(Br)cc1,3.3%
